Results taken from publication PMC4336329 (PLoS ONE, 2015).
In all, about 310,000 compounds went through this assay and about 14,000 (4.5%) showed an effect of 50% or more. The effect is printed as a negative number. The list shows a part of the results.

Target: human ether-à-go-go-related gene (hERG) potassium channel (human, UniProt Q12809)
Test: primary screen, population patch clamp on CHO cells stably expressing hERG
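Also: peak tail current of the secondary pulse compared with the same well before compound.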

Sequence of human ether-à-go-go-related gene (hERG) potassium channel (Q12809 whole entry, looked up): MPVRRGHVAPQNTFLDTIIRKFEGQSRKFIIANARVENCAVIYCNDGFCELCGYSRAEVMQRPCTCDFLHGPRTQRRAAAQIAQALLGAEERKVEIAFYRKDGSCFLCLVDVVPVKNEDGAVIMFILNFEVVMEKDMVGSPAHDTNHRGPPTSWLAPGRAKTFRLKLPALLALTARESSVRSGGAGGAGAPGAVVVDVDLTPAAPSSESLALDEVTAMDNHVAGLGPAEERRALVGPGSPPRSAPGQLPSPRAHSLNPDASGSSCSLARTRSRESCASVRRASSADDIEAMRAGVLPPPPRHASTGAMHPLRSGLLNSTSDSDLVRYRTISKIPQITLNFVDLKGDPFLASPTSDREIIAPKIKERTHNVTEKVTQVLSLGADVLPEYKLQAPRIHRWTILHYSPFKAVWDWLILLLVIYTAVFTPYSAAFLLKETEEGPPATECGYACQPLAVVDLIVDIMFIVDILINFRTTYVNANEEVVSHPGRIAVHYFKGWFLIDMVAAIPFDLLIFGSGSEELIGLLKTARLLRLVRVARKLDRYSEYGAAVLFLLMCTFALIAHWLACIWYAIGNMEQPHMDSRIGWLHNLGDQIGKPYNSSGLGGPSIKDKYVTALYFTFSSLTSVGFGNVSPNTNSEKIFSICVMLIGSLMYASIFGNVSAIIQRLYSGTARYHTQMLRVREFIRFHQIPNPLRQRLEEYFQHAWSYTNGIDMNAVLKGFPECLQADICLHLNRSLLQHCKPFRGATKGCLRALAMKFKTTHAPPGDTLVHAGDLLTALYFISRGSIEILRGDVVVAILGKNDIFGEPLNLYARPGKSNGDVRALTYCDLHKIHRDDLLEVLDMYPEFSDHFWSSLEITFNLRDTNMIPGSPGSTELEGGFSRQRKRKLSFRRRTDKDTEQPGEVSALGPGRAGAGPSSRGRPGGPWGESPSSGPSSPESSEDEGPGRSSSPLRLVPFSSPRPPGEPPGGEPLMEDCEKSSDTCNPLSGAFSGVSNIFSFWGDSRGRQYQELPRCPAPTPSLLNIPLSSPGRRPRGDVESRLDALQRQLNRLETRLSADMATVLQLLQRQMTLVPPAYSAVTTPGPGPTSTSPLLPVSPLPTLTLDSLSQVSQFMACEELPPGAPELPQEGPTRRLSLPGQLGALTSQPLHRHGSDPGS

SMILES	hERG current change (%, negative = inhibition) at 10uM
O=C(Nc1cnn(Cc2ccc(Cl)cc2)c1)c1cccs1	-2.52%
CC(=O)Nc1nc(-c2ccc3c(c2)CC(C)N3C(=O)C2CC2)c(C)s1 (stereo not shown)	4.04%
COc1ccccc1NS(=O)(=O)c1cccc(NC(=O)C2CC(=O)N(Cc3ccccc3)C2)c1 (stereo not shown)	6.4%
CC1CCN(CCc2nc3cc(NC(=O)NC4CCCCC4)ccc3n2C)CC1	-15.1%
Cc1nn2c(N)csc2nc1=O	7.5%
O=C(COC(=O)c1cc(NS(=O)(=O)c2cccs2)ccc1O)Nc1cc(Cl)ccc1Cl	29.2%
O=C(CSc1nnc(-c2ccco2)n1CC1CCCO1)NC1CCCC1 (stereo not shown)	-4.75%
CCOCCCNC(=O)C1CCN(S(=O)(=O)CC)CC1	1.19%
Cc1nn(-c2ccccc2)c(C)c1NC(=O)COC(=O)c1ccc(Cl)c(S(N)(=O)=O)c1	-0.198%
O=C(COC(=O)/C=C/c1cccs1)NC1CC1	6.82%
c1coc(C2=Nc3cccc4cccc(c34)N2)c1	-1.03%
CCCC1CCC(=NNS(=O)(=O)c2ccc(C)c([N+](=O)[O-])c2)CC1 (stereo not shown)	8.84%
CNC(=O)c1ccsc1NC(=O)c1ccc2c(c1)CCCC2	-2.49%
CSc1ccccc1OCc1cc(C(=O)NCCCn2nc(C)cc2C)no1	-30.5%
Cc1ccc(OCC(O)Cn2c(N3CCOCC3)nc3c2c(=O)[nH]c(=O)n3C)cc1 (stereo not shown)	-16.1%
Cc1cc(NC(=O)Nc2cccc(C(F)(F)F)c2)n(C)n1	12.3%
Cc1nonc1OCCNc1ccc([N+](=O)[O-])c2cccnc12	-18%
CCOC(=O)c1cc(C#N)c(N2CCCCC2)nc1-c1ccccc1	-5.08%
CCS(=O)(=O)Nc1cc2c3c(c1)CCC(=O)N3CCC2	14.2%
C=CCNc1nc(N)c([N+](=O)[O-])c(Nc2cccc(Cl)c2)n1	3.57%
N#Cc1ccc(C(=O)OCC(=O)Nc2ccc(N3CCOCC3)cc2)cc1	-1.64%
CCCN(C(=O)CCOc1ccc(C(C)(C)C)cc1)c1c(N)n(Cc2ccccc2)c(=O)[nH]c1=O	29.7%

SMILES	hERG current change (%, negative = inhibition) at 10uM
N/C(=N\OC(=O)/C=C/c1ccccc1)c1cccnc1	-5.4%
CN1C(=O)C(=O)/C(=C(/O)c2ccccc2)C1c1ccccc1 (stereo not shown)	32.3%
Cc1c(NC(=O)COC(=O)c2cc3c4ccccc4n(C)c3s2)c(=O)n(-c2ccccc2)n1C	-11.8%
COc1cccc(N2CCN(C(=O)c3ccc4nc[nH]c4c3)CC2)c1	10.6%
COc1ccccc1C(=O)Nc1ccc(NC(=O)c2ccco2)c(C)c1	-3.62%
COc1cccc(/C=C/C(=O)OCC(=O)NCc2ccc(Cl)cc2)c1	23.6%
O=C(COC(=O)Cc1ccccc1F)Nc1ccc2c(c1)OCO2	10.1%
Cn1c(=O)c2c(SCC(=O)NCc3ccco3)nc(-c3ccccc3Cl)nc2n(C)c1=O	-1.4%
COc1ccc([N+](=O)[O-])cc1NC(=O)c1cncc(Br)c1	-12.2%
CCOC(=O)c1ccc(NC(=S)N2CCCC(C(=O)OCC)C2)cc1 (stereo not shown)	-4.79%
Cc1ccc2c(NC(=O)c3ccc(Br)o3)cccc2n1	7.72%
CCCc1cc(=O)oc2cc(OCC(=O)NCC(O)c3ccccc3)ccc12 (stereo not shown)	26.8%
COc1ccc(NC(=O)CC2SC(=Nc3ccccc3)NC2=O)cc1 (stereo not shown)	-2.59%
CCOc1cc(N2C(=O)CC3CS(=O)(=O)CC32)c(OCC)cc1NC(=O)c1ccccc1 (stereo not shown)	5.62%
Cc1ccccc1NC(=O)C1=CC=CN2CCS(=O)(=O)N=C12	-11.7%
CCOc1ccc(-n2c(CC)nc3ccccc3c2=O)cc1	1.33%
Cc1c2cnn(CC(=O)NCCN3CCOCC3)c(=O)c2c(C)n1Cc1ccc(F)cc1	1.24%
Cn1c(=O)c2c(nc(N/N=C/c3cccs3)n2Cc2ccc(Br)cc2)n(C)c1=O	-15.8%
O=C(NCC(=O)N(Cc1ccccc1)C(C(=O)NCC1CCCO1)c1ccccc1)c1cccs1 (stereo not shown)	1.57%
O=C(OC1CCOC1=O)c1ccc(Cl)c(S(=O)(=O)N2CCOCC2)c1 (stereo not shown)	-16.5%
COc1ccccc1N1CCN(S(=O)(=O)c2ccc(-c3ccc(=O)[nH]n3)o2)CC1	10.5%
